From patent EP3470429A1 (Numab Innovation AG, dated 2019)

Experiments:
Assay in all cases: cell-based or functional assay
[1] = molecular target: T1, CD137 on the transgenic NFkB Jurkat reporter cell line (UniProt Q07011 24-255, limits assumed)
[2] = molecular target: T1, CD137 on the transgenic NFkB Jurkat …; remark: listed apart in the source
[3] = molecular target: T1, CD137 on the transgenic NFkB Jurkat …; remark: listed apart in the source
[4] = molecular target: T1, CD137 on the transgenic NFkB Jurkat …; remark: listed apart in the source
[5] = molecular target: T1, CD137 on the transgenic NFkB Jurkat …; remark: listed apart in the source
[6] = molecular target: T1, CD137 on the transgenic NFkB Jurkat …; remark: listed apart in the source
[7] = molecular target: T1, CD137 on the transgenic NFkB Jurkat …; remark: listed apart in the source

EC50 in ng/ml, NFkB-Luciferase reporter, CHO-PD-L1 cells [4] [ng/mL] | EC50 in ng/ml, NFkB-Luciferase reporter, HCC827 cells without IFNg [5] [ng/mL] | EC50 in ng/ml, NFkB-Luciferase reporter, HCC827 cells stimulated with IFNg [6] [ng/mL] | Binder | also measured
 |  |  | PRO1058 (other, also called 38_27_C05 sc01 scDb-i/33-03-G02 sc01 scDb-o/mxr HSA (23-13-A01-sc03,sk17sh4)) DIQMTQSPSSLSASVGDRVTITCQASQSINDYLAWYQQKPGKAPKLLIYKASTLASGVPSRFSGSGSGTDFTLTISSLQPEDFATYYCQQGYIITDIDNVFGTGTKVTVLGGGGGSQVQLQESGPGLVKPSETLSLTCKVSGFSFNNDYDMCWIRQPPGKGLEWIGCIDTGDGSTYYASWAKGRVTISVDSSKNQFSLKLSSVTAADTAVYYCAREAASSSGYGMGYFDLWGQGTLVTVSSGGGGSGGGGSGGGGSGGGGSIQMTQSPSSLSASVGDRVTITCQSSQSVYDNNWLAWYQQKPGKAPKLLIYRASNLASGVPSRFSGSGSGTDFTLTISSLQPEDFATYYCQGTYLSSNWYWAFGTGTKVTVLGGGGGSQVQLQESGPGLVKPSETLSLTCKVSGFSFSSGYDMCWIRQPPGKGLEWIGCVVAGSVDITYYASWAKGRVTISVDSSKNQFSLKLSSVTAADTAVYYCARKDAYSDAFNLWGQGTLVTVSSGGGGSGGGGSVVMTQSPSSLSASVGDRVTITCQASQIISSRSAWYQQKPGQPPKLLIYQASKLASGVPSRFSGSGSGTDFTLTISSLQPEDFATYYCQCTYIDSNFGAFGGGTKLTVLGGGGGSGGGGSGGGGSGGGGSEVQLVESGGGLVQPGGSLRLSCAASGFSFSSSYWICWVRQAPGKGLEWVGCVFTGDGTTYYASWAKGRFTISRDNSKNTVYLQMNSLRAEDTATYFCARPVSVYYYGMDLWGQGTLVTVSS | EC50 in ng/ml, NFkB-Luciferase reporter, PD-L1 expressing CHO cells (6h), + HSA [1]: 70.9 ng/mL; EC50 in ng/ml, NFkB-Luciferase reporter, PD-L1 expressing CHO cells (24h), + HSA [2]: 121 ng/mL; max. activation (%), NF-kB reporter, CHO-PD-L1, with HSA, 24h [3]: 36.2%
 |  |  | PRO1059 (bispecific antibody, human IgG1, kappa, L234A L235A) light: DIQMTQSPSSLSASVGDRVTITCQASQSINDYLAWYQQKPGKAPKLLIYKASTLASGVPSRFSGSGSGTDFTLTISSLQPEDFATYYCQQGYIITDIDNVFGTGTKVTVLGTVAAPSVFIFPPSDEQLKSGTASVVCLLNNFYPREAKVQWKVDNALQSGNSQESVTEQDSKDSTYSLSSTLTLSKADYEKHKVYACEVTHQGLSSPVTKSFNRGECGGGGSGGGGSIQMTQSPSSLSASVGDRVTITCQASQSINNVLAWYQQKPGKAPKLLIYRASTLASGVPSRFSGSGSGTDFTLTISSLQPEDFATYYCQSSYGNYGDFGTGTKVTVLGGGGGSGGGGSGGGGSGGGGSQVQLQESGPGLVKPSETLSLTCKVSGFSFSNSYWICWIRQPPGKGLEWIGCTFVGSSDSTYYANWAKGRVTISVDSSKNQFSLKLSSVTAADTAVYYCARHPSDAVYGYANNLWGQGTLVTVSS heavy: QVQLQESGPGLVKPSETLSLTCKVSGFSFSSGYDMCWIRQPPGKGLEWIGCVVAGSVDITYYASWAKGRVTISVDSSKNQFSLKLSSVTAADTAVYYCARKDAYSDAFNLWGQGTLVTVSSASTKGPSVFPLAPSSKSTSGGTAALGCLVKDYFPEPVTVSWNSGALTSGVHTFPAVLQSSGLYSLSSVVTVPSSSLGTQTYICNVNHKPSNTKVDKRVEPKSCDKTHTCPPCPAPEAAGGPSVFLFPPKPKDTLMISRTPEVTCVVVDVSHEDPEVKFNWYVDGVEVHNAKTKPREEQYNSTYRVVSVLTVLHQDWLNGKEYKCKVSNKALGAPIEKTISKAKGQPREPQVYTLPPSREEMTKNQVSLTCLVKGFYPSDIAVEWESNGQPENNYKTTPPVLDSDGSFFLYSKLTVDKSRWQQGNVFSCSVMHEALHNHYTQKSLSLSPGK | IC50 (ng/ml), NF-kB reporter, CHO-PD-L1, 24h [3]: 289 ng/mL
6 | 6.97 | 5.48 | PRO1126 (bispecific antibody) DFQLTQSPSSLSASVGDRVTITCQASQSINDYLAWYQQKPGKSPKLLIYKASTLASGVPSRFSGSGSGTDFTLTISSLQPEDFATYYCQQGYIITDIDNVFGTGTKVTVLGGGGGSQVQLQESGPGLVKPSETLSLTCKVSGFSFSNSYWICWIRQPPGKGLEWIGCTFVGSSDSTYYANWAKGRVTISVDSSKNQFSLKLSSVTAADTAVYYCARHPSDAVYGYANNLWGQGTLVTVSSGGGGSGGGGSGGGGSGGGGSIQMTQSPSSLSASVGDRVTITCQASQSINNVLAWYQQKPGKAPKLLIYRASTLASGVPSRFSGSGSGTDFTLTISSLQPEDFATYYCQSSYGNYGDFGTGTKVTVLGGGGGSQSQLQESGPGLVKPSETLSLTCKASGFSFSSGYDMCWVRQPPGKGLEWIACVVAGSVDITYYASWAKGRVTISKDSSKNQVSLKLSSVTAADTAVYFCARKDAYSDAFNLWGQGTLVTVSS | 
 |  |  | PRO963 (other, also called PRO1051; 38_02_A04 sc01 scDb-i/33-03-G02 sc01 scDb-o/19-01-H04-sc03 scFv) DIQMTQSPSSLSASVGDRVTITCQASQSINDYLAWYQQKPGKAPKLLIYKASTLASGVPSRFSGSGSGTDFTLTISSLQPEDFATYYCQQGYIITDIDNVFGTGTKVTVLGGGGGSQVQLQESGPGLVKPSETLSLTCKVSGFSFSNSYWICWIRQPPGKGLEWIGCTFVGSSDSTYYANWAKGRVTISVDSSKNQFSLKLSSVTAADTAVYYCARHPSDAVYGYANNLWGQGTLVTVSSGGGGSGGGGSGGGGSGGGGSIQMTQSPSSLSASVGDRVTITCQASQSINNVLAWYQQKPGKAPKLLIYRASTLASGVPSRFSGSGSGTDFTLTISSLQPEDFATYYCQSSYGNYGDFGTGTKVTVLGGGGGSQVQLQESGPGLVKPSETLSLTCKVSGFSFSSGYDMCWIRQPPGKGLEWIGCVVAGSVDITYYASWAKGRVTISVDSSKNQFSLKLSSVTAADTAVYYCARKDAYSDAFNLWGQGTLVTVSSGGGGSGGGGSIQMTQSPSSLSASVGDRVTITCQSSESVYSNNQLSWYQQKPGQPPKLLIYDASDLASGVPSRFSGSGSGTDFTLTISSLQPEDFATYYCAGGFSSSSDTAFGGGTKLTVLGGGGGSGGGGSGGGGSGGGGSEVQLVESGGGLVQPGGSLRLSCAASGFSLSSNAMGWVRQAPGKGLEYIGIISVGGFTYYASWAKGRFTISRDNSKNTVYLQMNSLRAEDTATYFCARDRHGGDSSGAFYLWGQGTLVTVSS | max. activation (%), NF-kB reporter, CHO-PD-L1, with HSA, 24h [3]: 369%
 |  |  | PRO1060 (bispecific antibody, human IgG1, kappa, L234A L235A) light: DIQMTQSPSSLSASVGDRVTITCQASQSINDYLAWYQQKPGKAPKLLIYKASTLASGVPSRFSGSGSGTDFTLTISSLQPEDFATYYCQQGYIITDIDNVFGTGTKVTVLGTVAAPSVFIFPPSDEQLKSGTASVVCLLNNFYPREAKVQWKVDNALQSGNSQESVTEQDSKDSTYSLSSTLTLSKADYEKHKVYACEVTHQGLSSPVTKSFNRGEC heavy: QVQLQESGPGLVKPSETLSLTCKVSGFSFSSGYDMCWIRQPPGKGLEWIGCVVAGSVDITYYASWAKGRVTISVDSSKNQFSLKLSSVTAADTAVYYCARKDAYSDAFNLWGQGTLVTVSSASTKGPSVFPLAPSSKSTSGGTAALGCLVKDYFPEPVTVSWNSGALTSGVHTFPAVLQSSGLYSLSSVVTVPSSSLGTQTYICNVNHKPSNTKVDKRVEPKSCDKTHTCPPCPAPEAAGGPSVFLFPPKPKDTLMISRTPEVTCVVVDVSHEDPEVKFNWYVDGVEVHNAKTKPREEQYNSTYRVVSVLTVLHQDWLNGKEYKCKVSNKALGAPIEKTISKAKGQPREPQVYTLPPSREEMTKNQVSLTCLVKGFYPSDIAVEWESNGQPENNYKTTPPVLDSDGSFFLYSKLTVDKSRWQQGNVFSCSVMHEALHNHYTQKSLSLSPGKGGGGSGGGGSIQMTQSPSSLSASVGDRVTITCQASQSINNVLAWYQQKPGKAPKLLIYRASTLASGVPSRFSGSGSGTDFTLTISSLQPEDFATYYCQSSYGNYGDFGTGTKVTVLGGGGGSGGGGSGGGGSGGGGSQVQLQESGPGLVKPSETLSLTCKVSGFSFSNSYWICWIRQPPGKGLEWIGCTFVGSSDSTYYANWAKGRVTISVDSSKNQFSLKLSSVTAADTAVYYCARHPSDAVYGYANNLWGQGTLVTVSS | EC50 in ng/ml, NFkB-Luciferase reporter, PD-L1 expressing CHO cells (6h) [1]: 56.4 ng/mL; EC50 in ng/ml, NFkB-Luciferase reporter, PD-L1 expressing CHO cells (24h) [2]: 80.8 ng/mL; EC50 in ng/ml, NFkB-Luciferase reporter, HCC827 with IFNy stimulation [7]: 17.5 ng/mL; EC50 in ng/ml, NFkB-Luciferase reporter, HCC827 without IFNy stimulation [7]: 13.6 ng/mL
5.75 | 16.1 | 11.9 | PRO1123 (bispecific antibody, also called 38-02-A04 sc05 IF scDb-i/33 03 G02 sc01 scDb-o) DIQMTQSPSSLSASVGDRVTITCQASQSINDYLAWYQQKPGKAPKLLIYKASTLASGVPSRFSGSGSGTDFTLTISSLQPEDFATYYCQQGYIITDIDNVFGTGTKVTVLGGGGGSQVQLQESGPGLVKPSETLSLTCKVSGFSFSNSYWICWVRQPPGKGLEWIGCTFVGSSDSTYYANWAKGRVTISVDSSKNQVSLKLSSVTAADTAVYFCARHPSDAVYGYANNLWGQGTLVTVSSGGGGSGGGGSGGGGSGGGGSIQMTQSPSSLSASVGDRVTITCQASQSINNVLAWYQQKPGKPPKLLIYRASTLASGVPSRFSGSGSGTDFTLTISSLQPEDFATYYCQSSYGNYGDFGTGTKVTVLGGGGGSQVQLQESGPGLVKPSETLSLTCKVSGFSFSSGYDMCWIRQPPGKGLEWIGCVVAGSVDITYYASWAKGRVTISVDSSKNQFSLKLSSVTAADTAVYYCARKDAYSDAFNLWGQGTLVTVSS | 
3.68 | 5.62 | 4.83 | PRO1124 (bispecific antibody, also called 38-02-A04 sc06 Full scDb-i/33_03_G02 sc01 scDb-o) DIQMTQSPSSLSASVGDRVTITCQASQSINDYLAWYQQKPGKAPKLLIYKASTLASGVPSRFSGSGSGTDFTLTISSLQPEDFATYYCQQGYIITDIDNVFGTGTKVTVLGGGGGSQVQLQESGPGLVKPSETLSLTCKASGFSFSNSYWICWVRQPPGKGLEWIGCTFVGSSDSTYYANWAKGRVTISKDSSKNQVSLKLSSVTAADTAVYFCARHPSDAVYGYANNLWGQGTLVTVSSGGGGSGGGGSGGGGSGGGGSLQMTQSPSSLSASVGDRVTITCQASQSINNVLAWYQQKPGKPPKLLIYRASTLASGVPSRFSGSGSGTDFTLTISSLQPEDFATYYCQSSYGNYGDFGTGTKVTVLGGGGGSQVQLQESGPGLVKPSETLSLTCKVSGFSFSSGYDMCWIRQPPGKGLEWIGCVVAGSVDITYYASWAKGRVTISVDSSKNQFSLKLSSVTAADTAVYYCARKDAYSDAFNLWGQGTLVTVSS | 
